From US20180194862A1 (AbbVie / Abbott, published 2018)

What was measured:
Assay in all cases: SPR
[1] = molecular target: T1, soluble form of the extracellular domain of human CD40 (Creative BioMart) (human, UniProt P25942 in part)
T1 construct: Bought

human mesothelin = molecular target: T2, human mesothelin (human, UniProt Q13421 296-580, limits assumed)
T2 construct: also called Human MSLN

[2] = molecular target: T3, soluble form of the extracellular domain of cynomolgus (cyno) CD40 (Creative BioMart) (cynomolgus, UniProt G7PG38 21-193)
T3 construct: extracellular domain; also called Cynomolgus CD40

T1 sequence (P25942 21-193 limits assumed): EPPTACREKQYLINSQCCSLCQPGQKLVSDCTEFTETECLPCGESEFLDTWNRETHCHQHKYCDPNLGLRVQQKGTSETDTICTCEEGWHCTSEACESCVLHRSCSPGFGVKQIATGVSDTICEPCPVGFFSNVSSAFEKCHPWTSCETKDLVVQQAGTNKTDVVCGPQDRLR
Chain of human mesothelin (Q13421 other isoform, or with tags, fused parts or gaps limits assumed): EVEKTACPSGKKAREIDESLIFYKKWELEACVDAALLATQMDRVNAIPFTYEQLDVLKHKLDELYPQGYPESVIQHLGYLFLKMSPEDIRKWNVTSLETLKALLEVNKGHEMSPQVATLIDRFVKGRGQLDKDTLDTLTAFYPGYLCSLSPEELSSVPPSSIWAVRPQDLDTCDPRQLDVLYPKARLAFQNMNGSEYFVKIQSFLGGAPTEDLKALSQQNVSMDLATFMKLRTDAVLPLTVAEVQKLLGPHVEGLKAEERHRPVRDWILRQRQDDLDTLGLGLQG

- Kd [1]: 40 nM
- koff [1]: 0.017 s⁻¹
- kon [1]: 430000 M⁻¹ s⁻¹
- Kd (human mesothelin): 28 nM
- koff (human mesothelin): 0.0081 s⁻¹
- kon (human mesothelin): 300000 M⁻¹ s⁻¹
- Kd [2]: 22 nM
- koff [2]: 0.018 s⁻¹
- kon [2]: 810000 M⁻¹ s⁻¹
B1: CF19 (bispecific antibody, human IgG1, kappa)
heavy: EVQLLESGGGLVQPGGSLRLSCAASGFTFSSYAMSWVRQAPGKGLEWVSAISGGGGRTYYADSVKGRFTISRDNSKNTLYLQMNSLRAEDTAVYYCAREEMAFRAYRFDIWGQGTLVTVSSASTKGPSVFPLAPSSKSTSGGTAALGCLVKDYFPEPVTVSWNSGALTSGVHTFPAVLQSSGLYSLSSVVTVPSSSLGTQTYICNVNHKPSNTKVDKKV[human IgG1 Fc with V273E (EU numbers) not written out]GGGGSGGGSGGGSGGGGSEVQLVESGGGLVQPGGSLRLSCAASGYSITSNYYWNWVRQAPGKGLEWMGYIRYDGSNNYNPSLKNRITISRDTSKNTFYLQMNSLRAEDTAVYYCARLDYWGQGTLVTVSSGGGGSGGGGSGGGGSGGGGSGGGGSDAQMTQSPSSLSASVGDRVTITCRSSQSLENTNGNTFLNWFQQKPGKAPKLLIYRVSNRFSGVPSRFSGSGSGTDFTLTISSLQPEDFATYYCLQVTHVPFTFGQGTKLEIKR
light: [about 200 residues not written out]
notes: IgG-scFv: MSLN76923 Fab
